According to PubChem BioAssay AID504333 (National Center for Advancing Translational Sciences (NCATS), 2011):
Among all 360,000 compounds or so, about 16,000 (4.4%) were called active. The shares of active, inactive and inconclusive entries below differ from those in the screen. Calls follow the shape of the dose curve; as a rule, active = well fitted inhibition curve with a large enough effect; inconclusive = small, poorly fitted or top-dose-only effect; inactive = no such curve, though single readings can be large or run the other way. Potencies of inconclusive entries are doubtful fits and often do not repeat.

Biological target: Bromodomain adjacent to zinc finger domain protein 2B (Homo sapiens) (UniProt Q9UIF8)
Chain of UniProt Q9UIF8 (Q9UIF8 whole entry, looked up, the tested form may be a part): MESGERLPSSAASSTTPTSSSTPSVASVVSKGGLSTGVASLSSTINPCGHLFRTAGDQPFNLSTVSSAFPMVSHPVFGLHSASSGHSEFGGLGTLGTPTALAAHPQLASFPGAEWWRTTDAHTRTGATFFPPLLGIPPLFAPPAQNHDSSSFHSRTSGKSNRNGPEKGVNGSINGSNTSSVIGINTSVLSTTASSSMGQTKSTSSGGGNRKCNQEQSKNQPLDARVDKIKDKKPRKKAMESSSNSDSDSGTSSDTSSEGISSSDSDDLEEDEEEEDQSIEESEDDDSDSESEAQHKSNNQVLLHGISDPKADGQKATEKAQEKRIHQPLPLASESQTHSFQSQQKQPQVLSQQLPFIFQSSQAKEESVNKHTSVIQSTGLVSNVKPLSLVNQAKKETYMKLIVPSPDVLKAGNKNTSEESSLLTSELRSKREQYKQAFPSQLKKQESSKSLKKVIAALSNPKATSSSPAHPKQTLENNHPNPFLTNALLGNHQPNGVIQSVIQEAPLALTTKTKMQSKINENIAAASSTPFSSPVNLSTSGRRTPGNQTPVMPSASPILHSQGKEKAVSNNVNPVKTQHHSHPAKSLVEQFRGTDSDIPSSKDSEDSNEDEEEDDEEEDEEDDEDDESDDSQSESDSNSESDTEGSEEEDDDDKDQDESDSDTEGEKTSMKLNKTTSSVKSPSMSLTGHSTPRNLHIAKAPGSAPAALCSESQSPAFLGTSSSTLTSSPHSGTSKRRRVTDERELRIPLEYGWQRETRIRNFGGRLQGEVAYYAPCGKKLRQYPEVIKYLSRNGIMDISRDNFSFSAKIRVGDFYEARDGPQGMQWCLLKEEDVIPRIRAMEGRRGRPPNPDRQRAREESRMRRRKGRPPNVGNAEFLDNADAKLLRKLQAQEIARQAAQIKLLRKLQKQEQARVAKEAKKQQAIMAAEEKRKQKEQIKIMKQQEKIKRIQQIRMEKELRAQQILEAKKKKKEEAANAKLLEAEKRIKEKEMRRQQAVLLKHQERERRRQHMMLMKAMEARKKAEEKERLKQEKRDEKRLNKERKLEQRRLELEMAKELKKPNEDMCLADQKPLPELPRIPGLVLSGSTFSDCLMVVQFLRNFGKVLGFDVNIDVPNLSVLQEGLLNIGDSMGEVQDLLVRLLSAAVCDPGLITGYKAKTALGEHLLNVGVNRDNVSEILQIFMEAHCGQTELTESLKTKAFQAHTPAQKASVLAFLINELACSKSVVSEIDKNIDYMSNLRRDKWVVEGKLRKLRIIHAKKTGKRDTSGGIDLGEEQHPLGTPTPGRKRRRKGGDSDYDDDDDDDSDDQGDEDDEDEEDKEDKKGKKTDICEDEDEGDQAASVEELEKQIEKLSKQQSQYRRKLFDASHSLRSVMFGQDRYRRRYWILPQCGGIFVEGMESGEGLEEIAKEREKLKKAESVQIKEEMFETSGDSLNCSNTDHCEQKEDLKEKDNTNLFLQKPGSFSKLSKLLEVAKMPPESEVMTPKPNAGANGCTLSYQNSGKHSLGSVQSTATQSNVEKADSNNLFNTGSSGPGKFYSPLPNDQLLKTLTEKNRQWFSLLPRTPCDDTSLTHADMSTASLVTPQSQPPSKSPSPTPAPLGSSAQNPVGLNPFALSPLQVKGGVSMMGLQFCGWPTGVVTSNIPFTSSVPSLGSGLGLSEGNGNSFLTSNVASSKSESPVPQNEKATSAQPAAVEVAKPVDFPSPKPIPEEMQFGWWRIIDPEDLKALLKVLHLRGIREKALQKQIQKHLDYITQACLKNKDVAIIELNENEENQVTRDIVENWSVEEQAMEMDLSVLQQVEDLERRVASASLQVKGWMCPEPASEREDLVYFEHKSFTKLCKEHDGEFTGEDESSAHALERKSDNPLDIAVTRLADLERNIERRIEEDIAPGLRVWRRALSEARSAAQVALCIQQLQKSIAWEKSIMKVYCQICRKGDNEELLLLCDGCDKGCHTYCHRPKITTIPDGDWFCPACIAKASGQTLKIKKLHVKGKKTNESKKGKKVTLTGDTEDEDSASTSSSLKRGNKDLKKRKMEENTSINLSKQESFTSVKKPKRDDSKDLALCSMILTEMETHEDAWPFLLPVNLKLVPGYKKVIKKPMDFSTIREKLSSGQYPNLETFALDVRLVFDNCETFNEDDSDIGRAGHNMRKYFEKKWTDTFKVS
Test: qHTS Assay for Inhibitors of BAZ2B; also: nearly all actives have a fitted effect of over 60% in size
Conditions: AlphaScreen BAZ2B-H3K14Ac peptide displacement; series mostly up to 114 µM
Procedure, shortened: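 BAZ2B 50 nM plus b-H3(5-23)K14Ac 50 nM, PBS pH 7.4/0.01% Tween-20, 30 min RT; compound added (max 110 uM), 30 min RT; streptavidin donor/Ni-chelate acceptor beads 10 ug/mL final, 20 min dark; AlphaScreen read.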
Potency is read from the fitted curve at half-maximal effect; tags tell the direction and shape of the fitted curve.

Row | Structure (SMILES) | Potency
1 | CCCNC(=O)C(Cc1ccccc1)NC(=O)c1ccc(C(F)(F)F)cc1 (centres undefined) | inactive
2 | O=[N+]([O-])c1ccc(N2CCOCC2)cc1NC(c1ccccc1)c1ccccc1 | inconclusive: 10 µM [inhibitor, full curve]
3 | O=C(Nc1ccc(S(=O)(=O)Nc2ccc(F)cc2)cc1)c1ccc(CN2CCOCC2)cc1 | inconclusive: 50.1 µM [inhibitor, partial curve]
4 | COc1ccc2c(c1)c(C(O)CN1CCN(Cc3ccc4c(c3)OCO4)CC1)c(C)n2C (centres undefined) | inconclusive: 79.4 µM [inhibitor, single point]
5 | CSCc1c(C(=O)OCC(=O)c2ccc[nH]2)oc2ccccc12 | inactive
6 | CCOC(=O)C1=C(C)N=c2s/c(=C\c3ccncc3)c(=O)n2C1c1ccc2c(c1)OCO2 (centres undefined) | inconclusive: 11.2 µM [inhibitor, full curve]
7 | O=[N+]([O-])c1cc(Cl)c2cccnc2c1O | active: 17.8 µM
8 | Cc1ccc(S(=O)(=O)NN2C(=O)c3ccccc3NC2c2ccccc2F)cc1 (centres undefined) | active: 50.1 µM
9 | COc1ccc(N2CCN(c3oc(COc4ccc(Cl)cc4Cl)nc3C#N)CC2)cc1 | inconclusive: 7.94 µM [inhibitor, full curve]
10 | COc1ccc(/C=N/Nc2nc(-c3ccc(C)cc3)c(NC(C)=O)s2)cc1 | inconclusive: 35.5 µM [inhibitor, partial curve]
11 | CN(Cc1cn(C)nc1-c1ccc(Oc2ccccc2)cc1)Cc1cnc2ccccn12 | inconclusive: 25.1 µM [inhibitor, partial curve]
12 | COc1ccc2c(c1)-c1nc(NC(=O)c3ccc(OC)c(Br)c3)sc1CC2 | inconclusive: 79.4 µM [inhibitor, single point]
13 | COc1ccc(OC)c(NC(=O)c2c(NCc3sccc3C)sc3c2CCCCC3)c1 | inconclusive: 12.6 µM [inhibitor, full curve, poor fit]
14 | Cc1ccc2nc(SCC(=O)Nc3cccc(S(=O)(=O)NC4=NCCCCC4)c3)[nH]c2c1 | inconclusive: 79.4 µM [inhibitor, single point]
15 | CCOC(=O)C1=C(O)/C(=C\c2cc(C)n(-c3ccccc3F)c2C)N=C1C | inconclusive: 70.8 µM [inhibitor, partial curve, poor fit]
16 | Cc1cccc(-c2noc(CN(C3CCCCC3)S(=O)(=O)c3ccc(F)cc3)n2)c1 | inactive
17 | CCC(C)C(=O)N1CCc2cc(-c3csc(N)n3)ccc21 (centres undefined) | inconclusive: 79.4 µM [inhibitor, single point]
18 | CCCCCn1nc(-c2ccccc2)c2nc3ccccc3nc21 | inactive
19 | Cn1c(N2CCN(c3ccccn3)CC2)nc2c1c(=O)n(Cc1ccc(Cl)cc1)c(=O)n2C | inconclusive: 79.4 µM [inhibitor, single point]
20 | CCN(CC(=O)Nc1ccc([N+](=O)[O-])cc1OC)c1ccccc1 | inconclusive: 50.1 µM [inhibitor, partial curve]
21 | CC(C)c1ccc(NC(=O)CC2NCCNC2=O)cc1 (centres undefined) | inactive
22 | CCOc1ccc(C(C(=O)Nc2ccc(F)cc2)N(C(=O)Cn2nnc3ccccc32)C2CC2)cc1 (centres undefined) | inactive
23 | CCn1c2ccccc2c2cc(NC(=O)Cc3ccc(S(=O)(=O)N4CCOCC4)s3)ccc21 | inconclusive: 79.4 µM [inhibitor, single point]

Row | Structure (SMILES) | Potency
24 | C=CCOC(=O)C(=O)/C=C/c1ccc2c(c1)Cc1ccccc1-2 | inconclusive: 56.2 µM [inhibitor, single point]
25 | c1ccc(Oc2cccc(CN3CCCCC3)c2)cc1 | inconclusive: 3.98 µM [inhibitor, single point]
26 | O=C(CCCn1c(=O)c2ccccc2n(Cc2cccc(Cl)c2)c1=O)NCCc1ccc(Cl)cc1 | inactive
27 | O=C(O)c1ccc(NC(=S)NC(=O)c2ccc3ccccc3c2)cc1 | inactive
28 | Oc1ccc(Br)cc1/C=N/n1c(-c2ccccc2)n[nH]c1=S | inconclusive: 28.2 µM [inhibitor, full curve]
29 | COc1ccc(OC)c(Nc2cc(-c3ccccc3)nc(N)n2)c1 | inconclusive: 89.1 µM [inhibitor, single point]
30 | COc1ccc(OC)c(-c2csc(NC(=O)C3COc4ccccc4O3)n2)c1 (centres undefined) | inconclusive: 79.4 µM [inhibitor, single point]
31 | CC(OC(=O)c1ccc2c(c1)C(=O)N(Cc1ccncc1)C2=O)C(=O)Nc1cccc(Cl)c1Cl (centres undefined) | inactive
32 | CC1=C(C(=O)OCc2ccccc2)C(c2ccc(-c3ccccc3)cc2)NC(=O)N1CCCCCC(=O)O (centres undefined) | active: 50.1 µM
33 | Cc1ccc(S(=O)(=O)N2CCN3CCCC3C2)cc1 (centres undefined) | inactive
34 | O=C(Nc1ccccc1N1CCCC1)c1cccc(F)c1 | inconclusive: 79.4 µM [inhibitor, single point]
35 | O=C(CN1C(=O)S/C(=C\c2ccc(C(=O)O)cc2)C1=O)Nc1ccccc1 | inactive
36 | CC(C)OC(=O)C(C(=O)C(F)(F)F)c1cc(NS(=O)(=O)c2ccc3c4c(cccc24)C(=O)N3)ccc1O (centres undefined) | inactive
37 | CCC(=O)Nc1ccccc1-c1nc2ccccc2n(CC(=O)c2ccc(Cl)cc2)c1=O | inconclusive: 89.1 µM [inhibitor, single point]
38 | O=C(NC(=S)N1CCN(c2ccccn2)CC1)c1ccco1 | inconclusive: 79.4 µM [inhibitor, partial curve]
39 | CCOC(=O)N1CCc2c(sc(NCc3cccc(F)c3)c2C(=O)Nc2ccc(OC)cc2OC)C1 | inconclusive: 35.5 µM [inhibitor, partial curve]
40 | CN(C/C=C/c1ccccc1[N+](=O)[O-])Cc1ccccc1 | active: 56.2 µM
41 | CC(=O)CCc1c(C)c2cccc(C)c2[nH]c1=O | inconclusive: 79.4 µM [inhibitor, single point]
42 | Cc1ccc(CN(C)CC(=O)Nc2ccccc2C(=O)NC2CC2)o1 | inconclusive: 89.1 µM [inhibitor, single point]
43 | COCCn1nnnc1C(c1cc(OC)ccc1OC)N1CCc2ccccc2C1 (centres undefined) | inconclusive: 79.4 µM [inhibitor, single point]
44 | O=C(CCn1cccc1)NCc1ccc2c(c1)OCO2 | active: 50.1 µM
45 | CSCCC(=O)N(C)CC1CCCN(CCc2cccc(C(F)(F)F)c2)C1 (centres undefined) | inconclusive: 89.1 µM [inhibitor, single point]
46 | C[C@@H]1NC(=O)[C@H](CCC(N)=O)NC(=O)c2cc([N+](=O)[O-])cc(I)c2NCC[C@@H](C(N)=O)NC1=O | inconclusive: 89.1 µM [inhibitor, single point]

Row | Structure (SMILES) | Potency
47 | N#Cc1nc(COc2ccccc2Cl)oc1NCc1ccco1 | inconclusive: 44.7 µM [inhibitor, partial curve, poor fit]
48 | CCN(CC)S(=O)(=O)c1ccc(N2CCN(c3cccc(OC)c3)CC2)c([N+](=O)[O-])c1 | inconclusive: 8.91 µM [inhibitor, full curve]
49 | O=c1[nH]c(C2CCCN(S(=O)(=O)c3ccccc3)C2)nc2c1nnn2Cc1ccccc1 (centres undefined) | inconclusive: 100 µM [inhibitor, single point]
50 | CN(CCc1ccccn1)C1CCCN(S(=O)(=O)c2ccccc2)C1 (centres undefined) | inactive
51 | CN(C)/C=N/c1nc(-c2ccc3c(c2)OCO3)cs1 | inactive
52 | Cc1cc(C2=NNC(=NC3CC3)SC2)c(C)n1-c1ccccc1 | inconclusive: 70.8 µM [inhibitor, single point]
53 | Cc1sc(NC(=O)/C=C/c2ccco2)c(C(=O)O)c1C | inconclusive: 56.2 µM [inhibitor, partial curve]
54 | CC(C)(C)C(=O)NC(=S)Nc1cccc(C(=O)O)c1 | inactive
55 | C=CCn1c(C)cc(-c2csc(NCC)n2)c1C | active: 39.8 µM
56 | Cc1ccc2nc(/C(C#N)=C/c3ccc(-c4cccc([N+](=O)[O-])c4)o3)[nH]c2c1 | inconclusive: 70.8 µM [inhibitor, single point]
57 | Cc1ccc(Nc2c(-c3ccccc3O)nc3cnccn23)cc1 | inconclusive: 44.7 µM [inhibitor, partial curve]
58 | O=C(O)CC1S/C(=N/N=C/c2ccc(-c3ccccc3[N+](=O)[O-])o2)NC1=O (centres undefined) | active: 50.1 µM
59 | Cc1ccc(-c2csc3ncnc(N4CCN(C(=O)c5ccco5)CC4)c23)cc1 | inconclusive: 89.1 µM [inhibitor, single point]
60 | COc1ccc(OC)c(Nc2nc(-c3cccs3)cs2)c1 | inconclusive: 50.1 µM [inhibitor, partial curve]
61 | O=c1[nH]c(=O)n(-c2ccc(F)cc2)c2c1C(C(F)(F)F)(C(F)(F)F)N=C(c1ccc(F)cc1)N2 | inconclusive: 89.1 µM [inhibitor, single point]
62 | CN(C)c1ccc(C(CNC(=O)c2ccccc2C(F)(F)F)N2CCOCC2)cc1 (centres undefined) | inactive
63 | O=C(COc1c(Br)cc(Br)c2cccnc12)Nc1ccccc1F | active: 50.1 µM
64 | CCN1/C(=C/C(C)=C/c2sc3ccccc3[n+]2CC)Sc2ccccc21 | active: 22.4 µM
65 | CCCCSc1nnc2c(n1)OC(c1ccc(Br)s1)N(C(C)=O)c1ccccc1-2 (centres undefined) | inconclusive: 10 µM [inhibitor, full curve, poor fit]
66 | CSc1ccc(CCNC(=O)Cn2ccc3cc(S(=O)(=O)N4CCCCCC4)ccc32)cc1 | inactive
67 | O=c1c(-c2cc(-c3ccccc3)nc3c2COc2ccc(Cl)cc2-3)coc2ccc(F)cc12 | inactive
68 | COc1nccnc1NS(=O)(=O)c1ccc(N/C=C2\CCCCC2=O)cc1 | inconclusive: 79.4 µM [inhibitor, single point]
69 | O=C(Nc1nc(=O)c2ccccc2s1)c1ccc(F)cc1 | inconclusive: 79.4 µM [inhibitor, single point]
